Data taken from publication PMC4633242.
These are yes or no findings as the source states them, for the method shown. For some assays here: In cells and extracts the contact can be indirect. Some results given as binding are weak or reduced against the parent protein; the word gives no strength. For some assays here: Sequences can lack the tags named with a protein.

By UniProt entry, the sequences of proteins in these tests, tags left out. Where a name states a change or a piece, a line headed by the entry shows the natural chain unless it says otherwise. Residues count along the entry.
UniProt P14416: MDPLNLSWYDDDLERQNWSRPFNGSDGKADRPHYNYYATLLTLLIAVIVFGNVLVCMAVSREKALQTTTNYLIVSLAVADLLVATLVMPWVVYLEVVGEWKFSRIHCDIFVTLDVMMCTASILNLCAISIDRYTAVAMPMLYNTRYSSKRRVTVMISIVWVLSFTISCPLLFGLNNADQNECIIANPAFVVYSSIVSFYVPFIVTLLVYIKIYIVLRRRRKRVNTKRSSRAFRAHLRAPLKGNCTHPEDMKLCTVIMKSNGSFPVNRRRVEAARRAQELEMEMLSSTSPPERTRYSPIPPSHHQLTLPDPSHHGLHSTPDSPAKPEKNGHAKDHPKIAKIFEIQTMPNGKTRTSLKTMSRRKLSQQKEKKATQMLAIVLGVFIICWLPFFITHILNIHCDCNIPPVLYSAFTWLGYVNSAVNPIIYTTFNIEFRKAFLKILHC
second intracellular loop of the D2R (IL2, amino acids 131-151), yeast two-hybrid bait: residues 131-151 of P14416
UniProt Q9ULC8: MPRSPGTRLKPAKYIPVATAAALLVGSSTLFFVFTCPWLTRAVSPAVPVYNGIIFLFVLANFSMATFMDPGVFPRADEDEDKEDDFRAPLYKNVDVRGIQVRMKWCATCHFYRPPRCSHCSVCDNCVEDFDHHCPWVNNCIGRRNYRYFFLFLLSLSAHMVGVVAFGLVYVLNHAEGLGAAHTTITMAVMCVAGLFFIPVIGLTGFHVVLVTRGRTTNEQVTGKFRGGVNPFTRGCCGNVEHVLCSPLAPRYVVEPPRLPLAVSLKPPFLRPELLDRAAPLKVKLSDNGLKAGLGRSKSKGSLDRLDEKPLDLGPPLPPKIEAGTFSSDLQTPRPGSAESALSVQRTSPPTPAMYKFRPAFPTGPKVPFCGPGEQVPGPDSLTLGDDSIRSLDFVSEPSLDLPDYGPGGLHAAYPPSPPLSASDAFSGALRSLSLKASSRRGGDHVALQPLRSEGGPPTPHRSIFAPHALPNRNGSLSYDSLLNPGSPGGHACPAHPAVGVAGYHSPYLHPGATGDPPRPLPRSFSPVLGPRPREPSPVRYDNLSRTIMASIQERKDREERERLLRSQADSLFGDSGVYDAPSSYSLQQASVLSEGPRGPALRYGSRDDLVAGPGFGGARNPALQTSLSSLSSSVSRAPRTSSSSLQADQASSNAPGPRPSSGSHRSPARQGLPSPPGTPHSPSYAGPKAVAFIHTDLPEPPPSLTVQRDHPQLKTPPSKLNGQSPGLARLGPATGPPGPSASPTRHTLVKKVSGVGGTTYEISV

What was measured:
[1] = molecular target: FLAG-tagged D2L (HEK-D2L stable cells) (human) (UniProt P14416); assay: co-IP; FLAG-D2L immunoprecipitated with rabbit anti-D2R or mouse anti-FLAG on Protein G magnetic beads from lysates of HEK-D2L cells transiently expressing a myc-tagged PAT; 100 mM sodium phosphate pH 7.5, 150 mM NaCl, 1% Nonidet P-40; blots with anti-myc or anti-zDHHC8
[2] = molecular target: second intracellular loop of the D2R (IL2, amino acids 131-151), yeast two-hybrid bait (human) (UniProt P14416); assay: two-hybrid; directed yeast two-hybrid; receptor loops as baits in pAS2-1, zinc finger domains as preys in pACT2, S. cerevisiae MaV103; β-galactosidase filter lift
[3] = molecular target: T1, second intracellular loop of the D4R (IL2, amino acids 132-151), yeast two-hybrid bait (UniProt P21917); assay: as above
T1 sequence: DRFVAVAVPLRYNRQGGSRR

[4] = molecular target: T2, second intracellular loop of the D5R (IL2, amino acids 137-158), yeast two-hybrid bait (UniProt P21918); assay: as above
T2 sequence: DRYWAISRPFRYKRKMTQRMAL

[5] = molecular target: HA-tagged D2L (NG108-15 stable cells) (UniProt P14416); assay: co-IP; HA-tagged D2L immunoprecipitated from stably transfected NG108-15 cells; mock with control IgG; blots with anti-zDHHC4 or anti-SERZβ

myc-tagged zDHHC8 (from UniProt Q9ULC8 1-765) (enzyme)
binding [1]: binds

zinc finger domain of zDHHC8 (amino acids 67-148), yeast two-hybrid prey (from UniProt Q9ULC8 67-148) (domain or fragment)
binding [2]: binds
binding [3]: binds
binding [4]: no binding

B1: zDHHC4 in NG108-15 cells (detected with anti-zDHHC4 antibody) (enzyme, UniProt Q9D6H5 1-343)
chain: MDFLVLFLFYLAFLLICVVLICIFTKSQRLKAVVLGGAQVCSRVIPQCLQRAVQTLLHQLFHTRHPTFIVLHLLLQGLVYAEYTCEVFGYCRELEFSLPYLLLPYVLLSVNLVFFTLTCAANPGTITKANESFLLQVYKFDDVMFPKNSRCPTCDLRKPARSKHCRLCDRCVHRFDHHCVWVNNCIGAWNTRYFLIYLLTLTASAATIATVTAAFLLRLVTVSDLYQETYLDDVGHFQAVDTVFLIQHLFLAFPRIVFLLGFVIVLSMLLAGYLCFALYLAATNQTTNEWYKGDWAWCQRWPLVAWSPSAEPRIHQNIHSHGFRSNLREIFLPATPSYKKKEK
binding [5]: binds

B2: zinc finger domain of zDHHC4 (amino acids 122-192), yeast two-hybrid prey (domain or fragment, UniProt Q9NPG8 122-192)
chain: NPGIITKANELLFLHVYEFDEVMFPKNVRCSTCDLRKPARSKHCSVCNWCVHRFDHHCVWVNNCIGAWNIR
binding [2]: binds
binding [3]: binds
binding [4]: no binding

B3: myc-tagged zDHHC4 (enzyme, UniProt Q9NPG8 1-344)
chain: MDFLVLFLFYLASVLMGLVLICVCSKTHSLKGLARGGAQIFSCIIPECLQRAVHGLLHYLFHTRNHTFIVLHLVLQGMVYTEYTWEVFGYCQELELSLHYLLLPYLLLGVNLFFFTLTCGTNPGIITKANELLFLHVYEFDEVMFPKNVRCSTCDLRKPARSKHCSVCNWCVHRFDHHCVWVNNCIGAWNIRYFLIYVLTLTASAATVAIVSTTFLVHLVVMSDLYQETYIDDLGHLHVMDTVFLIQYLFLTFPRIVFMLGFVVVLSFLLGGYLLFVLYLAATNQTTNEWYRGDWAWCQRCPLVAWPPSAEPQVHRNIHSHGLRSNLQEIFLPAFPCHERKKQE
binding [1]: binds

B4: myc-tagged GODZ (zDHHC3) (enzyme, UniProt Q9NYG2 1-299)
chain: MMLIPTHHFRNIERKPEYLQPEKCVPPPYPGPVGTMWFIRDGCGIACAIVTWFLVLYAEFVVLFVMLIPSRDYVYSIINGIVFNLLAFLALASHCRAMLTDPGAVPKGNATKEFIESLQLKPGQVVYKCPKCCSIKPDRAHHCSVCKRCIRKMDHHCPWVNNCVGENNQKYFVLFTMYIALISLHALIMVGFHFLHCFEEDWTKCSSFSPPTTVILLILLCFEGLLFLIFTSVMFGTQVHSICTDETGIEQLKKEERRWAKKTKWMNMKAVFGHPFSLGWASPFATPDQGKADPYQYVV
binding [1]: binds

B5: zDHHC7 (SERZβ) in NG108-15 cells (probed with anti-SERZβ antibody) (enzyme, UniProt Q91WU6 1-308)
chain: MQPSGHRLRDIEHHPLLTDNDNYDSASSSSSETDMADRVWFIRDGCGMVCAVMTWLLVVYADFVVTFVMLLPSKDFWYSVVNGVLFNCLAVLALSSHLRTMLTDPGAVPKGNATKEYMESLQLKPGEVIYKCPKCCCIKPERAHHCSICKRCIRKMDHHCPWVNNCVGEKNQRFFVLFTMYIALSSVHALILCGLQFISCVRGQWTECSDFSPPITVILLVFLCLEGLLFFTFTAVMFGTQIHSICNDETEIERLKSEKPTWERRLRWEGMKSVFGGPPSLLWMNPFVGFRLRRLQMRTRKGGPEFSV
binding [5]: no binding
